Results on 100 compounds are retold here after PubChem BioAssay AID485344 (National Center for Advancing Translational Sciences (NCATS), 2010).

Screen size: about 340,000 compounds; about 6,900 (2%) were called active. Rule as the data show it: active = inhibition above about 30%; inactive = below that, where a call was filed. This is a selection; strong and weak results do not stand in their true shares. Entries without a call were filed so in the source.

Chain of UniProt P14416 (P14416 whole entry, looked up): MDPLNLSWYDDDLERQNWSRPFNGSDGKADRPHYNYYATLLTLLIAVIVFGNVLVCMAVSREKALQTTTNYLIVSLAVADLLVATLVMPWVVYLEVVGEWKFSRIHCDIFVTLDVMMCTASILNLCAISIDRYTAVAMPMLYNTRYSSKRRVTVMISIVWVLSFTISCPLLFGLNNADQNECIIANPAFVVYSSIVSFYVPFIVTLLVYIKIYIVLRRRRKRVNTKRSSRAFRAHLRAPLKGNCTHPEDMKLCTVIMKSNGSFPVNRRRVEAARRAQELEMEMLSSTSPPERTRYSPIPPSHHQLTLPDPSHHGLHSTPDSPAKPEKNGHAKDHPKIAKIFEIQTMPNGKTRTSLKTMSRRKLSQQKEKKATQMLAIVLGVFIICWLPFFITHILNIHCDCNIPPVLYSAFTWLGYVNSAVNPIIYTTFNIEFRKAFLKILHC

This test addresses D(2) dopamine receptor (Homo sapiens) (UniProt P14416). Kind of test: HTS Assay for Allosteric Antagonists of the Human D2 Dopamine Receptor: Primary Screen for Antagonists. Also: 0% is about no effect. Conditions: HEK293 TREx D2 cells, calcium flux, dopamine EC80; at 10 µM; stronger effect = higher value. In outline:
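Cells plated overnight at 30 C with tetracycline; no-wash calcium dye, 30–90 min RT; 10 s baseline; compound pinned; 180 s read; EC80 dopamine added; another 180 s read.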
Background: Calcium flux is commonly read through the fluorescence of an indicator in the cells.
With `CC(C)C[C@H]1C(=O)N2CCCC2[C@]2(O)O[C@](NC(=O)[C@@H]3C=C4c5cccc6[nH]cc(c56)CC4N(C)C3)(C(C)C)C(=O)N12` (stereo not given in full), the inhibition is active: 78.1%.
As to `CS(=O)(=O)Nc1ccc(Cc2noc(-c3ccc4[nH]cc(CCN)c4c3)n2)cc1`, the inhibition was active: 40.2%.
The same measure for `O=C(COc1ccccc1[N+](=O)[O-])N1CCN(CCc2ccncc2)CC1`: 0.49%.
The same measure for `COc1ccc(C)cc1NC(=O)c1cccn(Cc2ccccc2Cl)c1=O`: -27.8%; for `Cc1ccc(-n2c(/C=C/c3cc(Br)cs3)nc3ccccc3c2=O)cc1C`: -15.7%; for `CC(C)[C@H]1C(=O)N2CCC[C@H]2[C@]2(O)O[C@](NC(=O)[C@@H]3C=C4c5cccc6[nH]cc(c56)C[C@H]4N(C)C3)(C(C)C)C(=O)N12`: active: 88.5%.
The same measure for `CC(C)c1ccc(NC(=O)CN2C(=O)CN=C(c3ccccc3)c3ccccc32)cc1`: -6.01%.
`CCOC(=O)C1CCN(Cc2ccc(Cl)nc2)CC1`: the inhibition was active: 46.7%.
With `CSc1ccc(CN2CCN(c3ccccc3C)CC2)cc1`, the inhibition is active: 70.8%.
The same measure for `C[C@H]1CC[C@@]2(C)[C@@H](CC[C@@H]3[C@@H]2CC[C@]2(C)[C@@H](O)CC[C@@H]32)C1`: active: 69.1%.
On to `NCC(O)c1ccc(O)cc1` (stereo not given), for which the inhibition was active: 32.1%.
Take `O=C(Cn1cc(C(=O)c2ccccc2)c2ccccc21)Nc1ccc(Br)cc1`: the inhibition was -1.46%.
As for `COc1ccc(-c2nc(CN3C(=O)CN=C(c4ccccc4Cl)c4cc(Cl)ccc43)c(C)o2)cc1OC`, the figure is 6.53%.
Consider `CCCc1ccc(OCC(=O)Nc2ccc(Cl)cc2C(=O)c2ccccc2)cc1`, for which the inhibition was 6.26%.
`C1=C(c2c[nH]c3ccccc23)CCN(Cc2ccccc2)C1`: the inhibition was active: 69.8%.
As to `Cc1cccc(CN2C(=O)CN=C(c3ccccc3)c3cc(Cl)ccc32)c1`, the inhibition was -13.5%.
As for `CN1CCc2cccc(Cl)c2CC1`, the figure is active: 52.6%; as for `COc1c2c(cc3c1OCO3)CCN(C)C2`, active: 74.8%; as for `CCOC(=O)c1ccc(NC(=O)c2cccn(Cc3ccccc3F)c2=O)cc1`, 17.9%.
As for `CCCCCc1nc2c(c(=O)c3ccccc3n2C)c(=O)n1C1CCCCCC1`, the figure is active: 45.8%; as for `N#Cc1ccccc1NC(=O)c1cccn(Cc2ccccc2)c1=O`, -17%; as for `CCC(C(=O)Nc1ccccc1F)N1C(=O)CN=C(c2ccccc2)c2ccccc21` (stereo not given), 0.732%.
As for `O=C(c1ccco1)c1cn(Cc2ccc(Cl)cc2)c2ccccc12`, the inhibition was active: 30.7%.
In the case of `COc1ccc(Cl)cc1NC(=O)c1sc2nc3c(cc2c1N)N1CCC3CC1`, the inhibition is 11.7%.
As for `Cc1ccc(S(=O)(=O)N(C)C)cc1NC(=O)C(C)[N+]12CCN(CC1)CC2` (stereo not given), the figure is active: 31.7%; as for `Cc1ccccc1C1=NCC(=S)Nc2ccc(Cl)cc21`, active: 40.7%; as for `O=C(CCc1nc(C2=CCN(Cc3cccc(Cl)c3)CC2)no1)Nc1ccccc1F`, 7%.
As for `Cc1cccc(NC(=O)Cn2cc(C(=O)c3ccccc3)c3ccccc32)c1`, the figure is 20.7%; as for `COc1ccc(OCC(=O)N2CCN(Cc3cc(=O)n4nc(-c5ccccc5C)sc4n3)CC2)cc1`, 14.5%.
The same measure for `CC(=O)NS(=O)(=O)c1ccc(NC(=O)c2cccn(Cc3ccc(Cl)cc3)c2=O)cc1`: 19.9%.
In the case of `O=c1c2ccccc2nc(/C=C\c2ccc(F)cc2)n1-c1ccccc1F`, the inhibition is -2.76%.
For `O=S1(=O)N(Cc2ccccc2)CCCN1Cc1cccc(Cl)c1`, the inhibition was 21.5%.
Turning to `O=C(COc1cccc(Cl)c1)N1CCN(CCc2ccncc2)CC1`, the inhibition stood at 3.94%.
On to `N#Cc1cc2c(nc1SCC(=O)Nc1ccc(OC(F)(F)F)cc1)C1CCN2CC1`, for which the inhibition was -13.9%.
The same measure for `O=C(COc1ccccc1Cl)N1CCN(CCc2ccncc2)CC1`: 9.7%; for `COc1ccccc1N1CCN(Cc2ccc(F)cc2)CC1`: active: 75.9%; for `Cc1cccc(CS(=O)(=O)Cc2ccc(C(=O)N3CCC4(CC3)OCCO4)o2)c1`: active: 39.8%.
Regarding `Cc1cccc(-n2c(/C=C/c3cn(C)c4ccccc34)nc3ccccc3c2=O)c1`, the inhibition was -9.56%.
As for `CCOC(=O)C1CCCN(c2ccc([N+](=O)[O-])c3nonc23)C1` (stereo not given), the figure is active: 51.7%.
As for `CC(C)(C)NC(=O)C1CC2CCCCC2CN1` (stereo not given), the figure is active: 64.2%.
As for `Cc1ccc(-c2nc(CN3C(=O)CN=C(c4ccccc4)c4cc(Cl)ccc43)c(C)o2)cc1`, the figure is 2.95%.
Regarding `Cc1cc(NC(=O)c2cccn(Cc3cccc(Cl)c3)c2=O)no1`, the inhibition is -14.7%.
As for `O=C(Nc1ccon1)c1cccn(Cc2ccccc2)c1=O`, the figure is -14.8%; as for `c1ccc(C2CC2)c(OCC2=NCCN2)c1`, active: 47%; as for `CCC(CO)NC(=O)C1C=C2c3cccc4[nH]cc(c34)CC2N(C)C1` (stereo not given), active: 81%.
The same measure for `CSc1ccc(CN2CCN(Cc3ccccc3Cl)CC2)cc1`: active: 69.5%; for `Cc1cc(-n2c(/C=C/c3ccc(Br)s3)nc3ccccc3c2=O)ccc1Br`: 28.3%.
Consider `CCCCc1ccc(NC(=O)c2cccn(Cc3ccc(Cl)cc3)c2=O)cc1`, for which the inhibition worked out at 7.44%.
In the case of `Cc1c(C(c2ccc(Cl)cc2Cl)c2c(O)c3ccccc3oc2=O)c(=O)n(-c2ccccc2)n1C` (stereo not given), the inhibition was -0.0282%.
On to `O=c1c2ccccc2nc(/C=C\c2ccccc2F)n1-c1ccc(O)cc1`, for which the inhibition is -15.7%.
Turning to `Cc1ccccc1CN1C(=O)CN=C(c2ccccc2)c2cc(Cl)ccc21`, the inhibition is -18.5%.
On to `COc1ccc(C(=O)Nc2ccc(Cl)cc2C(=O)c2ccccc2)c(OC)c1`, for which the inhibition was 5.22%.
Consider `Cc1ccc(OCC(=O)N2CCN(CCc3ccncc3)CC2)cc1C`, for which the inhibition is -26.6%.
On to `Clc1ccccc1N1CCN(Cc2ccc3c(c2)OCO3)CC1`, for which the inhibition is active: 60.2%.
With `Cc1ccc(-n2c(/C=C/c3cc(Br)cs3)nc3ccccc3c2=O)cc1`, the inhibition is -5.32%.
The same measure for `OC(CNCCc1c[nH]c2ccccc12)c1ccccc1` (stereo not given): active: 54%; for `Cc1cccc(-n2c(/C=C/c3ccccc3O)nc3ccccc3c2=O)c1`: -1.13%; for `CCNCC(O)c1cccc(O)c1` (stereo not given): active: 32.3%.
The same measure for `CCc1ccc(NC(=O)c2cccn(Cc3cccc([N+](=O)[O-])c3)c2=O)cc1`: -16.7%.
As for `O=C1NC(=O)N(Cc2ccco2)C(=O)/C1=C/C=C/c1ccco1`, the inhibition was active: 34.4%.
The same measure for `Cc1ccc(-n2c(/C=C/c3ccc(Br)s3)nc3ccccc3c2=O)cc1`: 13.5%; for `O=c1c2ccccc2nc(/C=C/c2cccc3ccccc23)n1-c1ccccc1Cl`: -13.3%.
The same measure for `CCCN1CC[C@@H]2c3cc(O)ccc3CC[C@@H]21`: active: 73%; for `COc1ccc(OC)c(NC(=O)Cn2cc(C(=O)c3ccccc3F)c3ccccc32)c1`: 1.63%.
Turning to `CCC1(c2ccccc2)C(=O)N(C)C(=O)N(C)C1=O`, the inhibition is active: 34%.
The same measure for `O=c1[nH]c2ccccc2n1C1CCN(CCCC(c2ccc(F)cc2)c2ccc(F)cc2)CC1`: active: 86.8%; for `Cc1ccc(-n2c(/C=C/c3ccc(Br)s3)nc3ccccc3c2=O)cc1C`: -5.6%; for `Cc1nnc(NC(=O)c2cccn(Cc3ccc(Cl)cc3)c2=O)s1`: -16.4%.
As for `CCN1CCN(Cc2cc(C(C)(C)C)c(O)c(C(C)(C)C)c2)CC1`, the figure is active: 45.9%; as for `C=CCn1c(O)c(C(C)=NCCN2CCOCC2)c(=O)[nH]c1=O`, active: 39.5%; as for `CCCCCCn1c(O)c(C=Nc2ccccc2N2CCOCC2)c(=O)[nH]c1=S`, active: 36.8%.
On to `FC(F)(F)c1ccc2c(c1)N(CCCN1CCN(CCCl)CC1)c1ccccc1S2`, for which the inhibition is active: 75.4%.
The same measure for `COC(=O)C1=C(c2ccc(-c3ccccc3)c(F)c2)C[C@@H]2CC[C@H]1N2C(=O)NC1Cc2ccccc2C1`: active: 38.4%.
The same measure for `Cc1cc(C)cc(-n2c(/C=C/c3cccc(F)c3)nc3ccccc3c2=O)c1`: -9.75%; for `COc1ccc(C(CNC(=O)c2ccc3c(c2)CCC3)N(C)C)cc1` (stereo not given): active: 79.5%.
Consider `Cc1ccc(O)c(CN2CCN(c3ccccc3)CC2)c1`, for which the inhibition was active: 38.4%.
As for `COc1ccc(C[C@@H]2c3cc(O)c(OC)cc3CCN2C)cc1O`, the figure is active: 51.9%; as for `COc1ccc(NC(=O)CN2C(=O)C(C)N=C(c3ccccc3F)c3cc(Cl)ccc32)c(OC)c1` (stereo not given), 9.75%; as for `Cc1ccc(NC(=O)N(Cc2ccc3c(c2)OCO3)C2CCN(Cc3ccccc3)CC2)cc1F`, -1.06%.
As for `OC(CN1CC=C(c2ccccc2)CC1)c1ccccc1` (stereo not given), the figure is active: 74.6%.
The same measure for `O=C(Nc1ccon1)c1cccn(Cc2cccc(Cl)c2)c1=O`: -13.6%; for `O=C(CN1CC=C(c2ccccc2)CC1)NC(=O)NCc1ccco1`: active: 39.6%.
In the case of `Cc1ccc2c(c1)C1CN(C)CCC1N2S(=O)(=O)c1ccccc1` (stereo not given), the inhibition is active: 44.4%.
On to `Cc1cccc(NC(=O)Cn2cc(C(=O)c3ccccc3)c3ccccc32)c1C`, for which the inhibition is 2.96%.
`O=c1[nH]c2ccccc2c(=O)n1-c1ccc(Cl)c(Cl)c1`: the inhibition is -1.36%.
As for `COc1ccccc1N1CCN(Cc2ccccc2Cl)CC1`, the figure is active: 79.3%.
As for `Cc1oc(-c2ccc(Cl)cc2)nc1CN1C(=O)CN=C(c2ccccc2)c2ccccc21`, the figure is -19.6%.
The same measure for `CN1CC[C@]2(c3cccc(O)c3)Cc3nc4ccccc4cc3C[C@H]2C1`: active: 40.5%; for `O=C(C[N+]12CCC(CC1)C(OC(=O)c1ccccc1)C2)c1ccc([N+](=O)[O-])cc1` (stereo not given): active: 33%.
Take `O=C1CC(c2ccc(Br)cc2)c2c(c3ccccc3oc2=O)O1` (stereo not given): the inhibition came out at 3.27%.
The same measure for `O=S1(=O)N(CCN2CC=C(c3c[nH]c4cc(F)ccc34)CC2)c2cccc3c2N1CCC3`: active: 63.7%; for `CCC12CN3CC(CC)(CN(C1)C3c1ccccn1)C2=O` (stereo not given): 4.54%; for `O=c1cc(C(F)(F)F)c2cc3c4c(c2o1)CCCN4CCC3`: active: 78.5%.
As for `CC(=O)N1CC(=O)Nc2ccc(F)cc2C1c1ccccc1` (stereo not given), the figure is -11.2%; as for `Cc1cc(C)cc(-n2c(=O)[nH]c3ccccc3c2=O)c1`, -3.27%; as for `O=[N+]([O-])c1cccc(CN2CCN(Cc3ccc(Br)cc3)CC2)c1`, active: 89.7%.
As to `COc1cc2occc2c2oc(=O)ccc12`, the inhibition is active: 32.6%.
For the compound `COc1cccc(CNCCc2c[nH]c3ccccc23)c1OC`, the inhibition was active: 52.2%.
Turning to `CCCSc1nc2ccccc2c(=O)n1-c1ccccc1OC`, the inhibition was -8.52%.
In the case of `Cc1cc(O)c(CN2CC=C(c3ccccc3)CC2)cc1C(C)C`, the inhibition was active: 74.6%.

The term inhibition denotes the change of the read-out against control, counted positive when it falls.
